# Some of the results follow.
# T1: UNK ZnF1-3 (human, UniProt Q9C0B0 31-174)
# T1 sequence: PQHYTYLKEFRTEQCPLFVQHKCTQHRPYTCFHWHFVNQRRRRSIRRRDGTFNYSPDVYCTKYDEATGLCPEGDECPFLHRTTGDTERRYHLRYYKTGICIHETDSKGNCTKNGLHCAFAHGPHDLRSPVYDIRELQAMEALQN
# B1: chr17:60770872:60770873:+_ENSG00000011028_ENST00000303375|hu_hu|hu_hu_hu_mus_True|1_48 (ssRNA)
# RNA: GGGAGUUCUACAGUCCGACGAUCUCUUUAAAAAAAAAAAAAAAAAGACAAACAAUAAUAGCACAUUUCGAGAAUCAAGAACUACAAAGAAAGGGCCGCUUUGAGUUUUUGUUCACAUCGUCCUGCACUGGGACACGACCAGGACAACAGAGGAUUGAGCAUCA
# B2: chr9:135205225:135205226:-_ENSG00000107290_ENST00000224140|hu_mus|motif|central (ssRNA)
# RNA: GGGAGUUCUACAGUCCGACGAUCUGUAGAAGUUGAAUCCCCAAAAGUGCUAUAUUGGGGCAUUUUGAAUUUUAUGUUUCGGAUUAUUUGUUUCAAACACAUUUGUAACUCAUGGGUUUCUUGACCAGUCAAUUGCCAACCCAGCAACAGAGGAUUGAGCAUCA
# B3: chr9:53370893:53370894:+_ENSMUSG00000033054_ENSMUST00000035850|mus_hu|FALSE|FALSE (ssRNA)
# RNA: GGGAGUUCUACAGUCCGACGAUCUGCUGAAUCAUUAGAUGGUUGUUUAGUAGAAGACAGCGAAUCUCCAAGAUGAAUUUCUACUUGUCCAGAUACAUUUAAAUGUGAACUUUCAACAGACACAGGUAGUAUUUCACUUUGAAGCAACAGAGGAUUGAGCAUCA
# B4: chrX:34632047:34632048:-_ENSMUSG00000036572_ENSMUST00000076265|mus_hu|motif|central (ssRNA)
# RNA: GGGAGUUCUACAGUCCGACGAUCUAACUAUUUAAAUUUUUGUAUCAACGAAAGUGUGUUCUAUCCUUCACUGUACCUGUACGGCAAGGACAUGCUUGUUGCUUCUACACUACCCAAUGUCAACACUUAUCAUCAACAAUACAACAACAGAGGAUUGAGCAUCA
# B5: chrX:77160730:77160731:+_ENSG00000131174_ENST00000481445|hu_mus|FALSE|FALSE (ssRNA)
# RNA: GGGAGUUCUACAGUCCGACGAUCCUACUGAUCUCUCCAUUCCUUUGGGGUGACUCUGCCAACAGGGGACAUGUUCCAUUCUAUUCCAAUUUGUGUGGCUGUAUAUGUCCAUGUAGAAACACAGAAGAUGGCUCCACCUGCUAACAACAGAGGAUUGAGCAUCA
# B6: chr4:142145789:142145790:+_ENSG00000109445_ENST00000262990|hu_mus|motif|central (ssRNA)
# RNA: GGGAGUUCUACAGUCCGACGAUCACACUGUGCACAAAUUGGUAACUUCUGAACAGAAUUACAAAAAUAGCAAAAUGCUCGGUUCUUCUGCCGCCUCUGACAUUUGUCGCAUUCCAUUGAAGCAUUGCAUGGGUGUUUGGCUAGCAACAGAGGAUUGAGCAUCA
# B7: 71532538_71534999_805_CDS_ENSG00000132485_ENST00000254821|human|control|control (ssRNA)
# RNA: GGGAGUUCUACAGUCCGACGAUCCCUCUCAGGAGAAGAUGAUGAACUUGAAUAAGAUCUUUUUCGUGGGGAAGAAGAGCCCCUGUGGGACCUGGAGCUGGAUCUUGAUUUCGACCCACGAGAUCUCGAACGUUCUCUGGAACUCAACAGAGGAUUGAGCAUCA
# B8: chr6:71460543:71460544:+_ENSMUSG00000052656_ENSMUST00000064637|mus_mus|FALSE|FALSE (ssRNA)
# RNA: GGGAGUUCUACAGUCCGACGAUCCAACCAAAUAAAUUCUGUCAUCAACAUCAGCAUAAUGUGUAUUUCCUGUCACUGCACUAACAUUAAACUAAACUUCAAACCACAAAAACAUUGUGACUAACAUUAAAAAGGCAAGCUGUACAACAGAGGAUUGAGCAUCA
# B9: chr22:19452774:19452775:-_ENSG00000070010_ENST00000399523|hu_hu|hu_hu_hu_mus_False|18_108 (ssRNA)
# RNA: GGGAGUUCUACAGUCCGACGAUCCUUUUCAUUAUAGUUGAUAGCAAUCACAUCUCCAGUCGUCAGACAGGCGAAGUUUCUCAAUGCAUUUUCUAAUACCGCUUUAGGGUUGGUAAUGUCCAGGAAGUCUGGGCUCUGAGGCUGCAACAGAGGAUUGAGCAUCA
# B10: chr1:220312391:220312392:+_ENSG00000067704_ENST00000302637|hu_mus|FALSE|FALSE (ssRNA)
# RNA: GGGAGUUCUACAGUCCGACGAUCAUCUGUCUCGGGGUUAAAACCGGUCAAAUUUCCCAAGAGAAAGCGGAGUGUGUUUCUGAGCUUGCUGAUGUCAUCUCUGGCAGCAGAGAGUACAGAGGGGCCAAUGGUCACCUCCGUGAACAACAGAGGAUUGAGCAUCA
# B11: 72348259_72351899_1274_CDS_ENSG00000157107_ENST00000430046|human|control|control (ssRNA)
# RNA: GGGAGUUCUACAGUCCGACGAUCCUCCUCAUUAGACAAAUUCCGAUUCAUCUGUACUGGACUGUGUCUAGAUAUUGCUGGGGAGAGUGUUAUAUUCCCUAUAGAUACUUUUAAUUCAUCCAAAGAAGCCAUUGUGUGAUGUGACAACAGAGGAUUGAGCAUCA
# B12: chr7:134027783:134027784:-_ENSMUSG00000059981_ENSMUST00000071268|mus_mus|motif|central (ssRNA)
# RNA: GGGAGUUCUACAGUCCGACGAUCGGAUGAACCCCGGAUAUUGGUGCACACAGGGUCCUGAAUCCCAGGUAUUUUAAAUUCGGUAAAACAGAGACCCAGGUUUGUAAAGGUUGGGACUUUGGGUCCCAGAUAUCUGAUAUACGACAACAGAGGAUUGAGCAUCA
# B13: 197144207_197145775_1926_CDS_ENSG00000177888_ENST00000367405|human|control|control (ssRNA)
# RNA: GGGAGUUCUACAGUCCGACGAUCACAUUUUCCACAUUCUUCACACUGAUGAGCUUUUUCACCUGAAUGUAUUUUUUUGUGCUUUGUAAGGUGAUCAUGACGGAUAAAUGUUUUUCCACAUUCAUCGCACUCAUAUCUUUUAUCCAACAGAGGAUUGAGCAUCA
# B14: chr2:178407766:178407767:+_ENSG00000018510_ENST00000264167|hu_hu|motif|central (ssRNA)
# RNA: GGGAGUUCUACAGUCCGACGAUCAUUGACUGAUUCGAUGUGUAUCAGAGUACAGGUCCACCAUACAAUUAGUUAAAUAUACGGGAACAGAUUAUCCAAAACAACACUGUGGAAAGAAUUACCAGUGUUUCCACAUAUAACUGCCAACAGAGGAUUGAGCAUCA
# B15: chr1:133829981:133829982:+_ENSMUSG00000026434_ENSMUST00000062264|mus_mus|FALSE|FALSE (ssRNA)
# RNA: GGGAGUUCUACAGUCCGACGAUCGAACUGUAAUUAGAAAAUAUACCUUCAAUCUAAUGAGUUAGUUUUAAAAGGAAUUCUAAACAAGUCCAAUCAGACACACCUUUUACACAAGUAACGUAGAAGAUAGUAUUAUUUCUCAAUCAACAGAGGAUUGAGCAUCA
# B16: chr12:39756943:39756944:-_ENSG00000139116_ENST00000544797|hu_mus|hu_hu_hu_mus_False|48_88 (ssRNA)
# RNA: GGGAGUUCUACAGUCCGACGAUCGGUUUGGCUGUUACCCCCAAGGGAAUCCUGUAGGAGUCUUGUCAGCUUAGAGUCUCUGUAAGGGACAUGUGUGGCUCUCUUGCUCUUGUCCCCCAAGGCGCUGAUUACAUUCCCAAGAGCCAACAGAGGAUUGAGCAUCA
# B17: 31532532_31534450_220_CDS_ENSG00000082213_ENST00000325366|human|control|control (ssRNA)
# RNA: GGGAGUUCUACAGUCCGACGAUCGAAAUGUAAAAAACUUACAUUACUGGCAGGAAGAUGCUUUGAGCCUAUGGCCCGGUAUAUAAAGGGUAGAACCUCCUGAUGAUCCUCCACCACCCACACUGGGAGCUUGGGGUAACGCCGCAACAGAGGAUUGAGCAUCA
# B18: chr3:176740097:176740098:-_ENSG00000177565_ENST00000430069|hu_mus|hu_hu_hu_mus_True|28_108 (ssRNA)
# RNA: GGGAGUUCUACAGUCCGACGAUCUGUUUUUUACACCACAAAAGGAGGCACUUUCAGUAUCUGCAAAAGGUGUUUAGUCCUAAAACAUACUCACCUAGAGGAUAACUAAAACAGAAUAUCUGUUACACUCUAAGACCUACUCCACAACAGAGGAUUGAGCAUCA
# B19: chr1:26449037:26449038:+_ENSG00000175087_ENST00000374271|hu_hu|motif|central (ssRNA)
# RNA: GGGAGUUCUACAGUCCGACGAUCAUUUGCAAAUAAUAUGUGUCACGUUUCCCAGCUGCUAUCUUUAAAUGCAAUUUGUACGGAUCUGAGUUCUAGUUCAAAAGCAUCUGGACGAUCCUGAGGGUUUGCAGCCAGCAUUUCCUUCAACAGAGGAUUGAGCAUCA
# B20: chr3:176740097:176740098:-_ENSG00000177565_ENST00000430069|hu_mus|hu_hu_hu_mus_True|18_108 (ssRNA)
# RNA: GGGAGUUCUACAGUCCGACGAUCUGUUUUUUACACCACAAAAGGAGGCACUUUCAGUAUCUGCAAAAGGUGUUUAGUCCUAAAACAUACUCACCUAGAGGAUAACUCAGGAAAACAUCAAUACAAUCUCUAAGACCUACUCCACAACAGAGGAUUGAGCAUCA
# B21: 77987833_77989049_584_CDS_ENSMUSG00000009828_ENSMUST00000044551|mouse|control|control (ssRNA)
# RNA: GGGAGUUCUACAGUCCGACGAUCUAUCUGGUACAUUAUAUUCCUUAUAGCAGACUCUGGAAACAACUUAUUUCUUUCUUUAAUGAGCUGGUAAAGGUUUUCCUUCAUGUACUCGAAGAUAAAGUAAAGAUGGUCGUUUUCCCUCAACAGAGGAUUGAGCAUCA
# B22: chr5:71490377:71490378:+_ENSG00000131711_ENST00000296755|hu_hu|FALSE|FALSE (ssRNA)
# RNA: GGGAGUUCUACAGUCCGACGAUCACCUACUCCCAUUUUUUGGAAAAGAAUGACAGGAUCAAUAGUAUUGCCUACACUUCUAAACAGAGGUUCUGGUUUCAUGGACAAUUUGUUUAGGUACUGGAGAGUGAAGCAGGCUUCUUCCAACAGAGGAUUGAGCAUCA
# Molecular target: T1, UNK ZnF1-3
# Experiment: nsRBNS (natural sequence RNA bind-n-seq); RBNS binding buffer (assumed for nsRBNS): 25 mM Tris pH 7.5, 150 mM KCl, 3 mM MgCl2, 0.01% Triton X-100, 500 ug/ml BSA, 20 U/ml SUPERase-In, 4 C; UNK is unkempt and MSI1 is Musashi-1; names of the RNAs are library labels; protein concentration not given here; high values mean tight binding
row,Binder,binding signal [enrichment R]
1,B1,2.83
2,B2,0.772
3,B3,0.526
4,B4,0.732
5,B5,1.04
6,B6,1.05
7,B7,0.818
8,B8,1.27
9,B9,0.725
10,B10,0.843
11,B11,0.904
12,B12,0.904
13,B13,0.335
14,B14,1.36
15,B15,1.47
16,B16,0.775
17,B17,0.807
18,B18,0.841
19,B19,0.961
20,B20,0.911
21,B21,0.622
22,B22,1.15
